Reference: article PMC4336329 (PLoS ONE, 2015)
The whole screen tested about 310,000 compounds, of which about 14,000 (4.5%) showed an effect of 50% or more. The effect is printed as a negative number. The list shows a part of the results.

Molecular target: human ether-à-go-go-related gene (hERG) potassium channel (human, UniProt Q12809)
Assay: primary screen, population patch clamp on CHO cells stably expressing hERG
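Note: peak tail current of the secondary pulse compared with the same well before compound.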

Sequence of human ether-à-go-go-related gene (hERG) potassium channel (Q12809 whole entry, looked up): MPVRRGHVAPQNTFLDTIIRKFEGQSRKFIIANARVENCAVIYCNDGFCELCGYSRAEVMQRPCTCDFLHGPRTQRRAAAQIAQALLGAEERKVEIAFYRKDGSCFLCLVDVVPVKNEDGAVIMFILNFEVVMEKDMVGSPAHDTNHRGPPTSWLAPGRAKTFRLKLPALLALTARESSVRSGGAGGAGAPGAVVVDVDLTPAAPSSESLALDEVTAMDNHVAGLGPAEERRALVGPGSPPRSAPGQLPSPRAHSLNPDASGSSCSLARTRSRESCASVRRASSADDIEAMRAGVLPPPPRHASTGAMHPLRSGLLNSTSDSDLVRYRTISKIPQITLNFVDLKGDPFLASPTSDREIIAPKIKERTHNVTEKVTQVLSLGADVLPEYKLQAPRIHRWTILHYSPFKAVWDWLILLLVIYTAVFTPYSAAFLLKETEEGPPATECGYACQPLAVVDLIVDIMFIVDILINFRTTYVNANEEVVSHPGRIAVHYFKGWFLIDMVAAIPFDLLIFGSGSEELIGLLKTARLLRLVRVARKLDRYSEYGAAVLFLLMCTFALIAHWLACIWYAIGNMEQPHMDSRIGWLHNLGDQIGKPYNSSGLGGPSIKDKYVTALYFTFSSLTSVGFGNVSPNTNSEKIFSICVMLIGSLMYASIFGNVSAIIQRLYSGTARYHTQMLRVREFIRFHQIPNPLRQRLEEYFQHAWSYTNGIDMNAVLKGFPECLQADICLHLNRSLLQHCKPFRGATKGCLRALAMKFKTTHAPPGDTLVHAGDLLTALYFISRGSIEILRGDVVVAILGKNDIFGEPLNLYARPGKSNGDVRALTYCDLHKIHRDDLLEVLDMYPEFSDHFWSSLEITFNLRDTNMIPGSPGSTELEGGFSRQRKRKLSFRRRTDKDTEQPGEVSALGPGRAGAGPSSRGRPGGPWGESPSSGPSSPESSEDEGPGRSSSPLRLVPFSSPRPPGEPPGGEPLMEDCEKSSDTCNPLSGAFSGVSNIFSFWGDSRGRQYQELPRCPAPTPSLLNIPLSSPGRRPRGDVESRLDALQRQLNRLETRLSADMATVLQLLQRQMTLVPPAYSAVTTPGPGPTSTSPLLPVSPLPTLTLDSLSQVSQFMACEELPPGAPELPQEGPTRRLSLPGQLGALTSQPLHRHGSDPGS

| Compound | hERG current change (%, negative = inhibition) at 10uM [%] |
| --- | --- |
| CC(C)(C)C(=O)/C=c1\[nH]c(=O)/c(=C\c2ccc(C#N)cc2)s1 | 7.64 |
| Cc1nc(CCNC(=O)CC2C(=O)NCCN2Cc2ccccc2)sc1C (centres unmarked) | 5.67 |
| Cc1ccc(OCc2cc(C(=O)N(C)Cc3nccn3C)no2)cc1C | -15.2 |
| O=C(C1=C(O)C(=O)N(Cc2ccco2)C1c1cccc(Cl)c1)c1ccco1 (centres unmarked) | -8.62 |
| O=C1CCc2cc(NS(=O)(=O)c3ccc(F)cc3)cc3c2N1CCC3 | -2.17 |
| CCOCCc1nn2c(=O)cc(CSCC(=O)Nc3ccc(OC)cc3)nc2s1 | 12.7 |
| O=c1c2c(nc3cc(-c4ccccc4)[nH]n13)CCC2 | 3.04 |
| CCOc1ccc(NC(=O)N(CC(C)C)CC(C)C)cc1 | 0.467 |
| COc1ccc(N(CC(=O)Nc2cc([N+](=O)[O-])ccc2C)S(C)(=O)=O)cc1OC | -2.94 |
| CCCCSc1nnc2c(n1)OC=Nc1ccccc1-2 | -12.6 |
| Cc1cccc([C@@H]2[C@@H]3C(=O)N(Cc4ccccc4)C(=O)[C@@H]3[C@]3(Cc4ccc(Cl)cc4)C(=O)N(c4cccc(Br)c4)C(=O)N23)c1 | 14.6 |
| COc1ccc(CC(=O)NC2CCSc3ccccc32)c(OC)c1 (centres unmarked) | 12.2 |
| CCN(CC)C(=O)c1c[nH]c2ccc(S(=O)(=O)Nc3cc(C)cc(C)c3)cc2c1=O | -0.741 |
| C=CCOc1c(Br)cc(CNCCCN2CCOCC2)cc1OC.Cl | 0.712 |
| Cc1cc(NC(=O)CN2CCN(C)CC2)no1 | 24.6 |
| Cc1cc(CN(C)C(=O)c2cc(COc3ccc(C)c(C)c3)on2)on1 | 15.9 |
| CCCCOC(=O)C1=C(C)Nc2ncnn2C1c1cccc(OC)c1OC (centres unmarked) | -4.86 |
| CCCCc1c(O)nc(SCC(=O)N2CCOCC2)[nH]c1=O | 9.57 |
| Cc1nccn1CCc1nc(N)nc(N)n1 | 9.49 |
| COCCNc1nnc(SCC(=O)Nc2nnc(-c3ccccc3)o2)s1 | 21.8 |
| c1ccc(Cc2nnc3sc(-c4cccnc4)nn23)cc1 | -47.1 |
| Cc1ccc(N=Nc2c(N)[nH]n3c(=O)cc(C)nc23)cc1 | -29.3 |
| Cc1ccc(OCC(=O)Nc2ccc3oc(=O)ccc3c2)cc1 | 7.52 |

| Compound | hERG current change (%, negative = inhibition) at 10uM [%] |
| --- | --- |
| Cc1ccc(CN2CCC(CNS(=O)(=O)c3ccc(-c4ccc(=O)[nH]n4)s3)CC2)cc1 | -60.6 |
| Cn1nc(C(=O)Nc2cccc(S(N)(=O)=O)c2)c2ccccc2c1=O | 11.4 |
| COc1ccc(NC(=O)N2c3ccccc3C(C)=CC2(C)C)cc1 | 12.1 |
| COc1cc(C(=O)NCCc2c[nH]c3ccccc23)ccc1OCc1c(C)noc1C | -16.6 |
| CCCOc1cccc(C(=O)Nc2cccc3ncccc23)c1 | 2.82 |
| COc1ccccc1CCCNC(=O)C1CCC(=O)N(CCc2ccc(Cl)cc2)C1 (centres unmarked) | -60.5 |
| O=C1c2ccccc2NC(c2ccc3c(c2)OCCO3)N1c1ccc2c(c1)OCCO2 (centres unmarked) | 10.9 |
| Nc1nc(SCC(=O)N2N=C3/C(=C/c4ccco4)CCCC3C2c2ccco2)n[nH]1 (centres unmarked) | -10.8 |
| COc1ccc(C(=O)/C=C/c2ccc(OC)c(COc3ccccc3F)c2)cc1 | 9.24 |
| CC1=NN(c2ccccc2)C(=O)C1C(=O)c1ccc(Cl)cc1 (centres unmarked) | 7.39 |
| O=C(Cc1cccc2ccccc12)Nc1ccc2c(c1)C(=O)NC2=O | 9.52 |
| Cc1cc(Nc2cccc(C(F)(F)F)c2)n2nc(C)nc2n1 | -51.8 |
| COC(=O)c1c(NC(=O)C2c3ccccc3Oc3ccccc32)sc(C)c1C | 15.7 |
| CCc1cccc(C)c1NC(=O)CO/N=C(\N)CC(=O)NC1CCCCC1 | 9.62 |
| CCOC(=O)/C=C/C(=O)Nc1ccccc1-c1ccccc1NC(=O)/C=C/C(=O)OCC | 2.65 |
| C=CCOc1ccc(Oc2cc(C)nc(SC)n2)nn1 | 12 |
| O=C(O)CN1CCc2ccccc2C1 | 21.3 |
| Cc1ccc(CNC(=O)Nc2ccccc2)cc1 | 1.41 |
| O=C(N/N=C/c1c[nH]c2ccccc12)c1cccs1 | 4.97 |
| CN1CCN(c2nnc(-c3ccc(Cl)cc3)c3ccccc23)CC1 | -45.7 |
| CCC(=O)Nc1cc(C)c(NC(=O)CCc2ccccc2)cn1 | 2.73 |
| CN(C)S(=O)(=O)c1ccc2c(c1)C(=O)c1cc(S(=O)(=O)N(C)C)ccc1CC2 | 7.08 |
| Cc1cc(N/C=C/C(=O)c2cccs2)ccc1F | 22.5 |

| Compound | hERG current change (%, negative = inhibition) at 10uM [%] |
| --- | --- |
| O=C(c1ccc(COc2ccccc2Cl)o1)N1N=C(C(F)F)CC1(O)C(F)F (centres unmarked) | 17.1 |
| COc1cc2c(cc1OC)C(C)N(C(=O)c1cccc([N+](=O)[O-])c1)CC2 (centres unmarked) | -5.85 |
| O=C(OC(C(=O)NC1CCCC1)c1ccc(F)cc1)c1ccno1 (centres unmarked) | -2.83 |
| COc1ccc(C(=O)Oc2c(CN3CCOCC3)cc(Cl)c3cccnc23)cc1OC | 6.53 |
| Cc1cccc(N(C(=O)c2csnn2)C(C(=O)NCc2ccccc2)c2cccs2)c1 (centres unmarked) | -9.49 |
| O=C(O)c1ccc(S(=O)(=O)NC2CCCCCC2)cc1 | 20.7 |
| Cn1cc(C(=O)NCC2COc3ccccc3O2)c(=O)c2cc(S(=O)(=O)N3CCCCC3)ccc21 (centres unmarked) | 4.61 |
| COc1cc(NC(=O)COc2ccccc2)ccc1NC(=O)c1ccco1 | -9.92 |
| COc1ccc(Cl)cc1-c1nc(-c2ccc(NC(=O)c3ccncc3)cc2)no1 | 2.51 |
| c1cc2c3c(cccc3c1)NC(c1ccc3c(c1)OCO3)N2 | 11.7 |
| Cc1ccsc1CN(C)C(=O)C1CCC(=O)N(CCc2cccc(F)c2)C1 (centres unmarked) | -35.9 |
| CC1(C)CC(=O)C(CC(=O)N2CCC(Cc3ccccc3)CC2)C(=O)C1 | 34.8 |
| COCCCn1c2nc3ccccc3nc2c2c(=O)n(Cc3ccc(Cl)cc3)cnc21 | -12.7 |
| CC(=O)c1cccc(NC(=O)NC2CCCc3ccccc32)c1 (centres unmarked) | -11 |
| COCCCNC(=S)N1CCN(c2nc(-c3ccccc3)cs2)CC1 | -5.55 |
| Cc1ccc(NCc2nnc(SCC(=O)O)n2-c2ccc(C)cc2)cc1 | 16.8 |
| N#CCCn1c(SCC(=O)N2CCN(S(=O)(=O)c3ccccc3)CC2)nc2ccccc21 | -32.6 |
| COc1ccc(-n2c(Cc3cccn3C)nnc2SCC(N)=O)cc1 | -0.432 |
| CC(C)(C)C1CCCCC1NC(=O)c1ccncc1 (centres unmarked) | 12.1 |
| CCc1ccc(CN2CCN(S(=O)(=O)Cc3ccccc3)CC2)cc1.O=C(O)C(=O)O | 5.61 |
| Cc1ccc(NC(=O)c2ccc(Cl)c(S(=O)(=O)N3CCCC3)c2)nc1 | -8.97 |
| O=C(N1CCN(c2ccccc2)CC1)C(F)(F)C(F)(F)F | 12.2 |
| CCOC(=O)N1CCN(C(=O)CSc2cc(C)nc3c(-c4ccccc4OC)c(C)nn23)CC1 | -17.6 |

| Compound | hERG current change (%, negative = inhibition) at 10uM [%] |
| --- | --- |
| CCC(=O)Nc1ccccc1 | -1.07 |
| CCN1C(=O)C(c2ccc(O)cc2)(c2ccc(O)cc2)c2ccccc21 | -18 |
| Cc1cccc(C(=O)N2CCCC(N3CCN(c4cccc(Cl)c4)CC3)C2)n1 (centres unmarked) | -17.5 |
| Cc1c(Br)c([N+](=O)[O-])nn1C(C)C(=O)N1CCCc2ccccc21 (centres unmarked) | -2.66 |
| CC(CCc1ccccc1)NC(=O)COC(=O)c1ccccc1O (centres unmarked) | 2.31 |
| COc1ccc(/C=C/C(=O)c2cc3cccc(OC)c3oc2=O)cc1 | 15.4 |
| COc1cccc(-c2nc(OC(C)C)c3ccccc3n2)c1 | 1.35 |
| CC(=O)Nc1nc(C)c(-c2csc([NH2+]c3ccccn3)n2)s1.[Br-] | -23.2 |
| COCCNC(=O)COC(=O)c1[nH]c(C)c(C(C)=O)c1C | 23.8 |
| CCNC(=S)Nc1cc(Cl)ccc1Oc1ccccc1 | -8.45 |
| O=c1c(Cl)c2oc3ccccc3nc-2c2ccccc12 | 28.9 |
| COc1ccccc1NC(=S)NC(=O)/C=C/c1ccco1 | 20.3 |
| CC(=O)c1ccc(NC(=O)C2CCCC2)cc1 | 10.7 |
| Cl.O=C(O)c1ccc(CNCc2ccccc2Cl)cc1 | -45.9 |
| Cc1cc(C)c(-c2cc(NC(=O)CSc3n[nH]c(N)n3)n(-c3ccccc3)n2)cc1C | 3.57 |
| COc1ccccc1/C=N/NC(=O)C(=O)Nc1ccccc1OC(F)(F)C(F)F | -3.16 |
| COc1cc2c(cc1NC(=O)COC(=O)c1ccccc1)oc1ccccc12 | 10.2 |
| Cn1cccc1C1Nc2ccccc2NC2=C1C(=O)CC(C)(C)C2 (centres unmarked) | 12.1 |
| Cc1ccc(C(=O)OC(C)C(=O)Nc2ccc3c(c2)OCO3)c(O)c1 (centres unmarked) | -12.1 |
| C=CCn1c(SCC(=O)Nc2ccc(S(N)(=O)=O)cc2)nnc1-c1cnccn1 | 13 |
